B1: ENSG00000147421:stop:overlap|stop_codon|ENSG00000147421|stop_codon|NA|stop_codon (ssRNA)
RNA: GGGAGUUCUACAGUCCGACGAUCACACUUGGUCCCCUGAGAGAAGGAUGGAAGAAAAUAAAUGGAAGUUGCUUUCUGCAGGGUAGGAGAUUGGCUGGACAGUUACUUCAAUGAGAAUCAAUACCCAGAUGAAGCAAAGAGGGACAACAGAGGAUUGAGCAUCA
B2: chr17:73284618:73284719:-|3pUTR|ENSG00000179604|msi1|FALSE|unique (ssRNA)
RNA: GGGAGUUCUACAGUCCGACGAUCGGGCACUCGCUCAGUCCCUAGGGGCUUGUUUGUUCUUUAUUAUUGUGUUUAAAUCCUUAUAGAGCAAUAUCAGGAUGGUGUUAAUAGGUCUGCCUCAGAAUGAGAAUCAAUCCUUUUAGACAACAGAGGAUUGAGCAUCA
B3: ENSG00000071189:stop:overlap|stop_codon|ENSG00000071189|stop_codon|NA|stop_codon (ssRNA)
RNA: GGGAGUUCUACAGUCCGACGAUCUUGGACCCUUUGUAAUAUUUUAUUUGACAUUUUAUAUCCUCUGCUUUGUGGGUGGUGCUUAGAAGAAAUGAAACGGGAAGCCAGGACUAUUAAGAUUGAUAGAAGAUUGACGGGUGCCAACAACAGAGGAUUGAGCAUCA
B4: chr5:74627411:74627511:-|3pUTR|ENSG00000171617|msi1_unk|total|mutant (ssRNA)
RNA: GGGAGUUCUACAGUCCGACGAUCUUUGUAAAACUGUUAUUUUUUUUUUUUUCACAAUGUGAAACUGAAGGUCAAUAAAUUAUCCGAGAUUUUCUCUUCAUUAUGUGUGUGGGUCUUCAUUUGAAUAAGACACAAUUUGAGGCACAACAGAGGAUUGAGCAUCA
B5: chr7:101137467:101137738:+|3pUTR|ENSG00000106366|msi1|FALSE|unique (ssRNA)
RNA: GGGAGUUCUACAGUCCGACGAUCGUUAAAAGAUGGUAAACCAGAUCUGUCUCCAAGACCUUGGCCUCUCCUUGGAGGACCUUUAGGUCAAACUCCCUAGUCUCCACCUGAGACCCUGGGAGAGAAGUUUGAAGCACAACUCCCCAACAGAGGAUUGAGCAUCA
B6: ENSG00000107863:be:win_3251|CDS|ENSG00000107863|bound_else_gene|NA|bound_elsewhere_windowed (ssRNA)
RNA: GGGAGUUCUACAGUCCGACGAUCCUUUGCUUGGUGCUAAAUCAGAGCCAAAGACUCAAAGCCCACACUCUCCGAAGGAAGAGUCGGAAAGGAAACUUCUCAGUAAAGAUGAUACCAGUCCCCCAAAAGACAAAGGCACAUGGACAACAGAGGAUUGAGCAUCA
B7: chr19:582815:582998:+|CDS_3pUTR|ENSG00000172270|msi1_unk|FALSE|overlapping (ssRNA)
RNA: GGGAGUUCUACAGUCCGACGAUCUCAUACACUUCCUUCUUUUUUAAAAAAGUUGGGUUUUCUCCAUUCAGGAUUCUGUUCCUUAGGUUUUUUUCCUUCUGAAGUGUUUCACGAGAGCCCGGGAGCUGCUGCCCUGCGGCCCCGCAACAGAGGAUUGAGCAUCA
B8: chr2:157736639:157736676:-|3pUTR|ENSG00000115170|msi1_unk|FALSE|overlapping (ssRNA)
RNA: GGGAGUUCUACAGUCCGACGAUCCUUCACAUUUGUAUGUGUGUAGACUGUAACUUUUUUUCAGUUCAUAUGCAGAACGUAUUUAGCCAUUACCCACGUGACACCACCGAAUAUAUUACUGAUUUAGAAGCAAAGAUUUCAGUACAACAGAGGAUUGAGCAUCA
B9: chr11:6395124:6395533:-|three_prime_utr|ENSG00000166313|control|control|control (ssRNA)
RNA: GGGAGUUCUACAGUCCGACGAUCCCCUCCACCUGCUUGUGUUGGGCCCCAGGGAACUAAAGGGUGUGGGUCAGGGAGGGGUCUAGAGGCUAUUCCUAGGCCUCAGGCCUCCCAAAUAUGCCCCUCCCCAGUAGCUACGGUUCCCAACAGAGGAUUGAGCAUCA
B10: chr21:29063390:29063550:-|CDS|ENSG00000156261|unk|FALSE|unique (ssRNA)
RNA: GGGAGUUCUACAGUCCGACGAUCGUUUACUUGUUUUGCCAGGGAACAGUGUUGAUAAAGACUGCUGAAGAAUUGAUGAAUUUUAGUAAGGGAGAAGAAAACCUCAUGGAUGCACAAGUCAAAGCUAUUGCUGAUACUGGUGCACAACAGAGGAUUGAGCAUCA
B11: chr13:52643008:52643109:+|CDS|ENSG00000139675|unk|total|mutant (ssRNA)
RNA: GGGAGUUCUACAGUCCGACGAUCCAUACUGUGAAGGGCCACAACUGUGAAGUCCGAAAAGCCCUGCCAAAGCAAGAGAUGGCCCGUGCUUCAUCCAGCCAAAGAGGUCGAAGGGGUUCUGGAAACUUUGGUGGUGGUCGUGGACAACAGAGGAUUGAGCAUCA
B12: chr2:190659421:190659522:+|CDS|ENSG00000138386|unk|FALSE|unique (ssRNA)
RNA: GGGAGUUCUACAGUCCGACGAUCAGAGACUGGGUCACAAACCCUGGGCUUUUCAAUCAGCCACUGACUUCCCUUCCUGUCAGUAGCAUACCCAUCUAUAAAUUACCAGAGGGAUCACCAACAUGGCUGGGAAUAUCCUGCAGUCAACAGAGGAUUGAGCAUCA
B13: ENSG00000038382:stop:overlap|stop_codon|ENSG00000038382|stop_codon|NA|stop_codon (ssRNA)
RNA: GGGAGUUCUACAGUCCGACGAUCUUGUAAGUAUAGGCGUUCAGAAUUGUAAGUCUAAAGGUAACACAAUUGCAGUCUUUUUGUAGGUAGAGAAGAAUUGUUCAUUGUCUUCAGUUUAACCUCCCAAUCUGUCCUGAAAUGUUCCAACAGAGGAUUGAGCAUCA
B14: chr12:123662440:123662541:+|3pUTR|ENSG00000111358|unk|total|mutant (ssRNA)
RNA: GGGAGUUCUACAGUCCGACGAUCAAUGGAAAUCACAAUUUUAAGUCCCGGAAAUAAAGUAUUAUAUAUACUUUCAAACAAGCCCGCAAGGCUUUUAUUAUUACUUUUUUAUUUGAAAUAUCUUAUAUAUUUGGUCCGUUCUGUCAACAGAGGAUUGAGCAUCA

Some of the results follow.

This passage reports binding signal results from paper PMC12136788.

For the test, the target named is MSI1 full-length (mouse, UniProt Q61474 1-362). The experiment in a line: nsRBNS (natural sequence RNA bind-n-seq); RBNS binding buffer (assumed for nsRBNS): 25 mM Tris pH 7.5, 150 mM KCl, 3 mM MgCl2, 0.01% Triton X-100, 500 ug/ml BSA, 20 U/ml SUPERase-In, 4 C; UNK is unkempt and MSI1 is Musashi-1; names of the RNAs are library labels; protein concentration not given here; high values mean tight binding.
Chain of UniProt Q61474 (Q61474 whole entry): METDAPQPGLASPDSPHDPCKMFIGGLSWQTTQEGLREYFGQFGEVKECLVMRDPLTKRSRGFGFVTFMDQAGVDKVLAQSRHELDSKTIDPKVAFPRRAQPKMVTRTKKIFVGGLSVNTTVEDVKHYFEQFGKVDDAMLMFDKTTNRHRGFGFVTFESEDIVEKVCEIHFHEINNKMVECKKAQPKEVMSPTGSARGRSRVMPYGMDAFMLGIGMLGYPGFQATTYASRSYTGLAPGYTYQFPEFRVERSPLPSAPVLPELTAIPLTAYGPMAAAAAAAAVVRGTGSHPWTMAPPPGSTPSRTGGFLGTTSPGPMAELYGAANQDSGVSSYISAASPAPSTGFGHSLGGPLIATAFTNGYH
B1 showed a binding signal of 0.34 enrichment R.

On to B2, for which the binding signal was determined as 3.7 enrichment R.

Take B3: the binding signal turned out to be 0.545 enrichment R.

In the case of B4, the binding signal came out at 0.282 enrichment R.

Turning to B5, the binding signal is 0.316 enrichment R.

In turn, B6 had a binding signal of 0.372 enrichment R.

With B7, the binding signal came out at 0.337 enrichment R.

B8 registered a binding signal of 3.92 enrichment R.

On to B9, for which the binding signal turned out to be 0.551 enrichment R.

B10 displayed a binding signal of 0.42 enrichment R.

B11 had a binding signal of 0.374 enrichment R.

Take B12: the binding signal is 0.584 enrichment R.

In the case of B13, the binding signal was determined as 1.12 enrichment R.

B14 displayed a binding signal of 1.62 enrichment R.
